{"source": "PubChem BioAssay AID463173", "about": "(ICCB-Longwood Screening Facility, Harvard Medical School, 2010)", "note": "About 1,700 (3.3%) of roughly 52,000 compounds were called active. Rule as the data show it: active = survival mostly below about 52% (no sharp cut-off); inactive = mostly above about 56%. This is one part of the list."}
{"test_system": "Wild type", "experiment": "S. aureus survival, RN4220 and DeltatarO strains – OD600, teichoic acid synthesis inhibitors, primary screen (AID 463173)", "conditions": "S. aureus RN4220 wild type/DeltatarO growth, OD600, 18 h, stronger effect = lower value, screened at 18.75 µg/mL (by protocol)"}
{"smiles": "COc1cc(C(=O)NCC(c2cccnc2)N2CCc3ccccc32)cc(OC)c1OC", "note": "(stereo not given)", "survival": "inactive: 83%"}
{"smiles": "CN(C)c1ccc(C(CNS(=O)(=O)c2ccccc2)N2CCc3ccccc32)cc1", "note": "(stereo not given)", "survival": "inactive: 80%"}
{"smiles": "Cc1ccc(C(=O)C2=C(O)C(=O)N(CCc3ccccc3)C2c2ccncc2)o1", "note": "(stereo not given)", "survival": "inactive: 106%"}
{"smiles": "CCN(CC)C(=O)Cn1c(=O)n(Cc2ccc(C(=O)NCc3ccccc3Cl)cc2)c(=O)c2ccccc21", "survival": "inactive: 115%"}
{"smiles": "O=C(CN1CCCC1)N1N=C(c2cccs2)CC1c1cccs1", "note": "(stereo not given)", "survival": "inactive: 100%"}
{"smiles": "CCOC(=O)c1c(-c2ccc(Br)cc2)csc1NC(=O)c1ccccc1F", "survival": "inactive: 73%"}
{"smiles": "CC(C)OC(=O)/C(C#N)=C\\c1cccs1", "survival": "inactive: 106%"}
{"smiles": "O=C(CSc1nccn1-c1ccc(F)cc1)Nc1ccc(OC(F)(F)F)cc1", "survival": "inactive: 74%"}
{"smiles": "COc1cc(C2C(=O)N(C3CCCCC3)CC(=O)N2Cc2ccc(C)cc2)ccc1OC(C)C", "note": "(stereo not given)", "survival": "inactive: 80%"}
{"smiles": "Cc1ccc[n+](CC(=O)c2cccs2)c1", "survival": "inactive: 103%"}
{"smiles": "O=C1CN(C(=O)c2ccccc2C(F)(F)F)C(c2ccccc2)c2cc(F)ccc2N1", "note": "(stereo not given)", "survival": "inactive: 66%"}
{"smiles": "COc1cc2c(cc1OC)C(COc1ccc3c(C)cc(=O)oc3c1)N(C(=O)c1ccc(Cl)cc1)CC2", "note": "(stereo not given)", "survival": "inactive: 69%"}
{"smiles": "O=C1[C@@H]2CSC(c3ccc(C(F)(F)F)cc3)N2C(=O)N1c1ccccc1", "note": "(stereo not given in full)", "survival": "inactive: 77%"}
{"smiles": "CCCNc1c(NC(=O)c2ccc(OCCC)cc2)c(=O)oc2ccccc12", "survival": "inactive: 78%"}
{"smiles": "Cc1ccc2c(C)c(C(=O)N(Cc3ccc(Cl)cc3)C3CCS(=O)(=O)C3)oc2c1", "note": "(stereo not given)", "survival": "inactive: 55%"}
{"smiles": "Cc1ccccc1NC(=O)CCn1cnc2onc(-c3ccc(F)cc3)c2c1=O", "survival": "inactive: 120%"}
{"smiles": "CCC(C)(C)C1CCc2c(sc(NC(=O)C3c4ccccc4Oc4ccccc43)c2C(N)=O)C1", "note": "(stereo not given)", "survival": "inactive: 120%"}
{"smiles": "COCCNC(=O)c1cn(Cc2cccc3ccccc23)nn1", "survival": "inactive: 115%"}
{"smiles": "CN1CCC(OC(=O)c2ccco2)CC1", "survival": "inactive: 94%"}
{"smiles": "O=S(=O)(c1ccccc1)c1nc(-c2cccs2)oc1SCc1ccccc1F", "survival": "inactive: 77%"}
{"smiles": "Cc1ccc(C)c(N2CCN(CCCNC(=O)Cn3ncc4c5ccccc5n(C)c4c3=O)CC2)c1", "survival": "inactive: 80%"}
{"smiles": "CCCCC(CC)CNC(=O)C1CCN(S(=O)(=O)c2cccc3nsnc23)CC1", "note": "(stereo not given)", "survival": "inactive: 96%"}
{"smiles": "Cc1ccc(C(C(=O)NC2CCCCC2)N(C(=O)Cc2c[nH]c3ccccc23)C2CC2)o1", "note": "(stereo not given)", "survival": "inactive: 100%"}
{"smiles": "CC(C)(C)NS(=O)(=O)c1ccc(-c2nnc(SCC(=O)c3ccc(F)cc3)o2)cc1", "survival": "inactive: 111%"}
{"smiles": "CCOc1ccc(NC(=O)CCn2cnc3onc(-c4ccc(F)cc4)c3c2=O)cc1", "survival": "inactive: 53%"}
